From PubChem BioAssay AID1745853 (National Center for Advancing Translational Sciences (NCATS), 2022)
The other results are listed elsewhere or left out. Shown are side measurements of this screen, not its main read-out; they come without a call.

What was measured:
Assay in all cases: Primary Screen for Target Class Profiling of Small Molecule Inhibitors of Methyltransferases
[1] = target: Glycine N-methyltransferase (Homo sapiens) (UniProt Q14749); details: purified enzyme, MTase-Glo SAH luminescence; measured here: GNMT inhibition; at 40 µM; stronger effect = lower value
Summary of the method: (§1)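 Each enzyme was reacted with SAM and its substrate, with compounds tested once at 40 uM; SAH formed was read by MTase-Glo luminescence.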

[2] = target: Guanidinoacetate N-methyltransferase (Homo sapiens) (UniProt Q14353); details: purified enzyme, MTase-Glo SAH luminescence; measured here: GAMT inhibition; at 40 µM; stronger effect = lower value
Summary of the method: as §1

[3] = target: Histamine N-methyltransferase (Homo sapiens) (UniProt P50135); details: purified enzyme, MTase-Glo SAH luminescence; measured here: HNMT inhibition; at 40 µM; stronger effect = lower value
Summary of the method: as §1

[4] = target: Nicotinamide N-methyltransferase (Homo sapiens) (UniProt P40261); details: purified enzyme, MTase-Glo SAH luminescence; measured here: NNMT inhibition; at 40 µM; stronger effect = lower value
Summary of the method: as §1

[5] = target: Phenylethanolamine N-methyltransferase (Homo sapiens) (UniProt P11086); details: purified enzyme, MTase-Glo SAH luminescence; measured here: PNMT inhibition; at 40 µM; stronger effect = lower value
Summary of the method: as §1
On the % scale 0 is the no-effect control and ±100 the full control effect.

| SMILES | activity change, negative = inhibition [1] | activity change, negative = inhibition [2] | activity change, negative = inhibition [3] | activity change, negative = inhibition [4] | activity change, negative = inhibition [5] |
| --- | --- | --- | --- | --- | --- |
| CCCCOC(=O)COc1cc2oc(=O)cc(-c3ccccc3)c2cc1Cl | -4.09% | 0% | 1.71% | 0.579% | -3.49% |
| O=C(CCc1nnc2n(Cc3ccc(Cl)cc3)c(=O)c3ccccc3n12)Nc1ccc(F)cc1 | -1.24% | 0% | 8.54% | 3.49% | 2.8% |
| COCCO[C@H]1C(=O)N(C2CCN(C(=O)c3cnccn3)CC2)[C@H]1c1ccncc1 | -2.8% | -3.09% | -0.644% | -3.61% | 14.1% |
| Cc1cc2c(cc3n2CC(C)(C(=O)NC2CCCCCC2)N(CC(C)c2ccccc2)C3=O)o1 (stereo not drawn) | -0.178% | 1.34% | 2.81% | 3.92% | -1.45% |
| Cc1cc(C)c(S(=O)(=O)c2nnn3c2nc(NCCCOC(C)C)c2ccccc23)c(C)c1 | -4.43% | 4.83% | 3.31% | -0.671% | -4.5% |
| CC1CCC(NC(=O)c2cc3n(n2)CC(C)(C(=O)NC2CCCCCC2)N(C)C3=O)CC1 (stereo not drawn) | 6.46% | 0% | 3.64% | 6.05% | 4.53% |
| Cc1c(Cl)cccc1NC(=O)Cn1c(=O)oc2cc(S(=O)(=O)N3CCCC3)ccc21 | -6.18% | 1.59% | -6.97% | -14.2% | -12.7% |
| CCOCC(=O)N[C@@H]1CN(Cc2ccccc2)C[C@H]1CN(C)C | -0.005% | 0.813% | 1.16% | -4.85% | 11.1% |
| Cc1ccc(NC(=O)CSc2nnc3[nH]c(=O)c(C(C)(C)C)nn23)c(C)c1 | 7.07% | 0% | 9.4% | 0.365% | 1.47% |
| CCC(CC)n1c(=O)n(CCCc2cccnc2)c2cc(C(=O)O)cnc21 | -2.27% | -1.76% | 0.597% | -4.78% | 0.433% |
| Cc1cnn(CC(=O)N2CC(F)(F)C[C@H]2c2nc(C3CC3)no2)c1 | -3.51% | -5.88% | -1.95% | -9.44% | -6.46% |
| COc1cccc(CNC(=O)c2cc3n(n2)CC(C)(C(=O)NCc2ccc(C)cc2)N(C)C3=O)c1OC (stereo not drawn) | 1.67% | 2.54% | 2.28% | -1.41% | -0.743% |
| CCOc1ccc(CN2C(=O)c3cc4ccc(OC)cc4n3CC2(C)C(=O)NC2CCCC2)cc1 (stereo not drawn) | 4.81% | 4.09% | 9.72% | 7.34% | 3.19% |
| CCCC1c2cccn2CCN1C(=O)Nc1ccc(F)cc1 (stereo not drawn) | -0.903% | 0.756% | -14.3% | 0.44% | -0.577% |
| CC(C)(O)/C=C/CC(C)(O)C1C(O)CC2(C)C3CCC4C(C)(C)C(=O)CCC4(C)C3CCC12C (stereo not drawn) | -0.604% | 4.47% | 2.87% | -10.6% | 3.83% |
| COc1ccccc1N1CCN(C(=O)CCCc2nnc3n4nc(-c5ccccc5)nc4c4ccccc4n23)CC1 | 0.593% | 0.55% | 0.376% | 3.97% | -2.41% |
| Cc1ccc(CNC(=O)C2(C)Cn3nc(C(=O)NCc4ccccc4)cc3C(=O)N2C)cc1 (stereo not drawn) | 6.04% | 0.048% | 0.786% | 12.9% | 5.41% |
| CCN1CCN(c2nc3c(s2)CN(Cc2ccccn2)CC3)CC1 | -4.2% | -2.01% | -12.3% | -6.66% | -2.46% |
| CCc1cccc(C)c1NC(=O)c1ncn2c1C(=O)N(C1CC1)C(C)(C(=O)NCc1ccc(F)cc1)C2 (stereo not drawn) | 4.62% | 0% | 12.8% | 7.91% | 8.82% |
| Cc1ccc(-c2nnn3c2nc(N2CCCCC2)c2ccccc23)cc1 | 2.44% | 0.251% | 10.1% | 13.7% | 2.42% |
| COc1ccc(-c2nnc(-c3ccc(OC)c(S(=O)(=O)N4CCCCC4)c3)o2)cc1OC | -18.7% | 1.99% | -10.4% | -12.8% | -5.93% |
| CCOc1ccc(N(C(=O)C(C)C)S(=O)(=O)c2ccc3c(c2)n(C)c(=O)n3C)cc1 | 3.45% | 0.122% | 9.17% | 4.6% | 1.79% |
| CC1=C[C@@H](CO)[C@H](C(C)C)C[C@H]1CC(=O)NCc1cc(F)cc(F)c1 | -6.19% | -4.82% | -1.78% | -8.38% | -2.61% |
| CC(C)(C)OC(=O)c1ncn2c1C(C)(C)Nc1ccccc1-2 | -8.59% | 5.98% | 2.04% | -10.3% | 1.96% |
| COc1nc2ccc(Br)cc2cc1[C@@H](c1ccccc1)[C@@](O)(CCN(C)C)c1cccc2ccccc12 | -3.27% | -26.1% | -1.49% | -26.8% | -14.1% |
| CNc1cc2[nH]c(=O)n(-c3ccc(NC(=O)NS(=O)(=O)c4ccc(Cl)s4)cc3)c(=O)c2cc1F | -0.493% | -2.97% | -2.61% | -15.5% | -13.3% |
| CC(=O)/C=C/[C@H]1[C@](C)(O)[C@@H](O)[C@H](O)C2C(C)(C)CCC[C@@]21C (stereo partly drawn) | -5.05% | -6.66% | 3.36% | -16.5% | -9.71% |

| SMILES | activity change, negative = inhibition [1] | activity change, negative = inhibition [2] | activity change, negative = inhibition [3] | activity change, negative = inhibition [4] | activity change, negative = inhibition [5] |
| --- | --- | --- | --- | --- | --- |
| O=C(Cn1c(=O)oc2cc(S(=O)(=O)N3CCCC3)ccc21)NCCc1ccc(Cl)cc1 | 3.31% | 0% | 4.45% | 6.85% | -1.79% |
| C[C@@H](OC(=O)/C=C/c1ccc(O)cc1)C1=C[C@]2(C=C[C@@H]3C(C(=O)O)=CO[C@@H](O[C@@H]4O[C@H](CO[C@@H]5O[C@H](CO)[C@@H](O)[C@H](O)[C@H]5O)[C@@H](O)[C@H](O)[C@H]4O)[C@@H]32)OC1=O | 5.12% | 5.28% | 6.5% | -4.81% | 3.17% |
| O=C(c1ccc(F)cc1)N1CCCC(C(=O)N2CCC(c3nc4ncccc4[nH]3)CC2)C1 (stereo not drawn) | -6.88% | -5.19% | -4.64% | -10.6% | -10.1% |
| CC(=O)N[C@H]1[C@H](O[C@H]2CC[C@@]3(C)C(CC[C@]4(C)C3CC=C3C5CC(C)(C)CC[C@]5(C(=O)O)[C@H](O)C[C@]34C)C2(C)C)O[C@H](CO[C@@H]2OC[C@H](O)[C@H](O)[C@H]2O[C@@H]2OC[C@@H](O)[C@H](O)[C@H]2O)[C@@H](O)[C@@H]1O (stereo partly drawn) | 1.33% | 2.55% | 10.5% | -12.2% | -3.17% |
| CN1c2cc(C(=O)NCc3ccccc3)ccc2C(=O)N2CCCC21 (stereo not drawn) | -4.64% | 2.16% | -3.42% | 0.054% | 14.2% |
| C[C@@H]1[C@H]2[C@H](O[C@@H]3O[C@H](CO)[C@@H](O)[C@H](O)[C@H]3O)OC=C(C(=O)O)[C@H]2C[C@@H]1OC(=O)/C=C/c1ccc(O)cc1 | 3.52% | 4.57% | 10.6% | -8.18% | 1.68% |
| C[C@@H]1C[C@H](O[C@@H]2O[C@H](CO[C@@H]3OC[C@](O)(CO)[C@H]3O)[C@@H](O)[C@H](O)[C@H]2O)CC(C)(C)[C@H]1/C=C/[C@@H](C)O | 0.655% | -2.6% | 8.46% | -15.1% | 3.64% |
| CCCn1c(=O)c2ccc(C(=O)NC(C)C)cc2n2c(=O)n(Cc3cccc(C)c3)nc12 | 0.516% | 0.23% | 7.12% | -8.46% | 4.28% |
| Cc1ccc(NC(=O)C2CCc3nnc(C4CCN(C(=O)NC(C)(C)C)CC4)n32)cc1 (stereo not drawn) | -2.51% | -7.58% | -1.47% | -10.3% | -2.97% |
| CCOC(=O)c1cc2n(n1)CC(C)(C(=O)NCc1ccccc1OC)N(c1ccc(F)cc1)C2=O (stereo not drawn) | 4.94% | 0% | 5% | 10.4% | 4.34% |
| C[C@](N)(Cc1ccc(O)c(O)c1)C(=O)O | -55.3% | -0.278% | -6.96% | -10.9% | -1.65% |
| COc1ccc(-c2n[nH]n3c2nc(=O)c2ccc(C(=O)NCc4ccccc4F)cc23)cc1 | -22.4% | 2.31% | -4.12% | -2.53% | -11% |
| Cc1cccc(CSc2nnc3n(C)c(=O)c4ccc(C(=O)NC5CCCC5)cc4n23)c1 | -0.131% | 0% | 10.7% | 8.71% | 7.06% |
| O=C(CN1C(=O)C(c2ccccc2)=NC12CCCC2)NC1CCCC1 | 5.38% | -0.945% | 0.791% | -5.28% | -0.751% |
| CC(C)Cn1c(=O)c2ccc(C(=O)NC3CCCCC3)cc2n2c(=O)n(Cc3ccccc3)nc12 | 4.69% | 1.01% | 9.81% | 3.23% | 5.94% |
| CC[C@@H](C)[C@@H]1OC2(C=C[C@H]1C)C[C@@H]1C[C@H](C/C=C(\C)[C@H](O[C@H]3C[C@H](OC)[C@H](O[C@H]4C[C@H](OC)[C@H](NC(C)=O)[C@H](C)O4)[C@H](C)O3)[C@H](C)/C=C/C=C3\CO[C@H]4[C@H](O)C(C)=C[C@@H](C(=O)O1)[C@@]34O)O2 (stereo partly drawn) | -6.18% | 23.9% | -1.54% | -8.11% | -4.68% |
| c1cnc(N2CCN(Cc3ccc4c(c3)OCO4)CC2)nc1 | 11.2% | 11.7% | 13.8% | -6.02% | -1.4% |
| CN(c1ccccc1)c1cc(=O)c2ccnc(-c3ccc(CO)cc3)c2o1 | -34.8% | -26.1% | -42.2% | -38.1% | -28% |
| Oc1cccc(Nc2ccnc3cc(-c4cccc(CN5CCOCC5)c4)sc23)c1 | – | 4.8% | – | -42.9% | -20.1% |
| CCCC1c2cccn2CCN1C(=O)Nc1cccc(OC)c1 (stereo not drawn) | 4.21% | 4.07% | -10% | 2.07% | 9.62% |
| N[C@H]1CN(c2c(F)cc3c(=O)c(C(=O)O)cn(C4C[C@@H]4F)c3c2Cl)CC12CC2 (stereo partly drawn) | 3.71% | 9.26% | -8.72% | -14.5% | -4.03% |
| CCCNCCOc1ccc(NC(=O)c2c[nH]c3c2C(=O)CCC3)cc1F | -1.93% | 4.92% | -10.6% | -16.2% | -2.18% |
| CCc1ccc(-c2cc3n(n2)CC(C)(C(=O)NC2CCCCC2)N(c2ccc(OC)cc2)C3=O)cc1 (stereo not drawn) | 4.02% | 4.32% | 6.56% | 0.986% | -0.394% |
| CCOCCCNC(=O)C1c2c(n(C)c3ccccc23)SCC(=O)N1Cc1cccnc1 (stereo not drawn) | 9.22% | 0.163% | 5.4% | 3.24% | 6.99% |
| Cc1ccc(NC(=O)CSc2nnc3n(C)c(=O)c4ccc(C(=O)NC5CCCCC5)cc4n23)cc1 | -0.967% | 0% | -5.1% | 0.644% | 4.72% |
| CC(=O)OC[C@@]12[C@H](O)C[C@]3(C)C(=CCC4[C@@]5(C)CC[C@H](O[C@@H]6O[C@H](C(=O)O)[C@@H](O[C@@H]7O[C@H](CO)[C@@H](O)[C@H](O)[C@H]7O)[C@H](O)[C@H]6O[C@@H]6O[C@H](CO)[C@@H](O)[C@H](O)[C@H]6O)[C@](C)(CO)C5CC[C@]43C)[C@@H]1CC(C)(C)[C@@H](OC(C)=O)[C@@H]2O (stereo partly drawn) | 0% | 5.92% | 3.54% | -5.17% | 8.72% |
